System: apoptotic cells in injured cortex and hippocampus
Test: TUNEL staining
Details: 1 h, n = 10 mice

CAST–PEG–CS: 40 kDa 8-arm PEG scaffold modified with CAST and CS peptide (activity-based nanotheranostic) (chain 1 DPMSSTYIEELGKREVTIPPKYRELLAKC; chain 2 QEVYGAMPKGC; not fully specified; 5FAM on the added lysine; C-terminal amide; cysteine joined to the 8-arm PEG by maleimide chemistry | QSY21 on the N-terminus; Cy5 on the lysine; PEG2 spacer between K(Cy5) and GC; c)
number of apoptotic cells (words, figure title): reduces the number of apoptotic cells in the injured cortex and hippocampus
